Measurements from PubChem BioAssay AID651820 (National Center for Advancing Translational Sciences (NCATS), 2012).
Out of some 340,000 compounds screened, about 12,000 (3.5%) were called active. The shares of active, inactive and inconclusive entries below differ from those in the screen. Calls follow the shape of the dose curve; as a rule, active = well fitted inhibition curve with a large enough effect; inconclusive = small, poorly fitted or top-dose-only effect, or another doubt; inactive = no such curve, though single readings can be large or run the other way. No potency is given beside an inconclusive call; the fits are too rough.

test: qHTS Assay for Inhibitors of Hepatitis C Virus (HCV); details: Huh7.5.1 HCVcc-Cre (HCVcc is cell-culture hepatitis C virus) infection, luciferase reporter, 44 h; series mostly up to 41.8 µM
Method in brief: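 Cells (1,000/well) were plated 4 h before compound, then infected with HCVcc-Cre virus (~0.5 moi). After 44 h further culture, infection was read as luciferase luminescence following a 15 min substrate incubation at room temperature.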
Potency is read from the fitted curve at half-maximal effect; tags tell the direction and shape of the fitted curve.

SMILES | Potency
Brc1cccc(Nc2nc(-c3cccnc3)cs2)c1 | active: 10 µM
COc1cc(C(=O)N(CCN(C)C)CC2CCCN(Cc3ccccc3F)C2)ccc1C (stereo unspecified) | inconclusive [inhibitor, single point]
Cc1ccc(C(=O)N/C(=C/c2ccco2)C(=O)NCC2CCCO2)cc1 (stereo unspecified) | inactive
COc1ccc(OC)c(-c2cc(C(=O)Nc3c(C)nn(Cc4ccccc4)c3C)no2)c1 | inconclusive [inhibitor, full curve, poor fit]
O=C(CCc1ccccc1)NC1(Cc2ccccc2)CCN(CCCc2ccccc2)C1=O (stereo unspecified) | inconclusive [inhibitor, partial curve, poor fit]
COc1ccc(-c2noc(CSc3nc4sc(C)c(C)c4c(=O)n3-c3ccccc3)n2)cc1OC | inconclusive [inhibitor, single point]
COc1ccccc1NC(=O)c1ccc2c(c1)N(CC(=O)NC(C)(C)C)C(=O)C(C)(C)O2 | inconclusive [inhibitor, single point]
O=C(Nc1ccc(F)c(F)c1)c1ccc(-n2cncn2)c([N+](=O)[O-])c1 | active: 22.4 µM
COc1ccccc1C(=O)N1CCN(Cc2nc3cc([N+](=O)[O-])ccc3n2C)CC1 | inactive
CC(=C/c1ccc(C(C)C)cc1)/C=N/NC(=O)c1ccncc1 | inconclusive [inhibitor, partial curve]
CN(CCOc1ccc(Cl)cc1)C(=O)c1cc([N+](=O)[O-])ccc1N1CCOCC1 | inconclusive [inhibitor, single point]
O=[N+]([O-])c1ccc(S(=O)(=O)N2CCN(Cc3ccco3)CC2)cc1 | inactive
Clc1ccc(Cn2ncc3c(NCc4ccco4)ncnc32)c(Cl)c1 | inconclusive [inhibitor, single point]
COc1cc2cnc(-c3ccsc3)c(-c3ccc(F)cc3)c2cc1OC | active: 6.31 µM
CCOc1cccc(C(=O)Nc2ccc3oc(-c4cccnc4)nc3c2)c1 | active: 10 µM
c1ccc2c(c1)OCCOCCOc1ccccc1OCCOCCO2 | inactive
CCc1ccccc1NC(=O)NC1CCCCC1 | inactive
CCN(CC)S(=O)(=O)c1ccc(N/N=C(\C)c2ccc3c(c2)OCO3)c([N+](=O)[O-])c1 | inconclusive [inhibitor, full curve]
CC(=O)Nc1ccc(S(=O)(=O)N[C@@H](C)C(=O)OCc2cc([N+](=O)[O-])cc3c2OCOC3)cc1 | inactive
COc1cc2[nH]c3c(N4CCN(c5ccc(Cl)cc5)CC4)ncnc3c2cc1OC | inconclusive [inhibitor, full curve, poor fit]
Cc1nc2c(c(=O)c3ccccc3n2C)c(=O)n1C1CCCCCC1 | inconclusive [inhibitor, partial curve, poor fit]
Cc1cccc(/C(N)=N/OC(=O)c2ccc(Cl)cc2Cl)c1 | inconclusive [inhibitor, single point]

SMILES | Potency
Cc1cc(C)cc(C(=O)N(c2ccccn2)C(C)c2ccco2)c1 (stereo unspecified) | inactive
CCn1nnc(-c2ccccc2NS(=O)(=O)c2ccc(S(=O)(=O)N3CCCCCC3)cc2)n1 | inconclusive [inhibitor, full curve]
O=C(NCc1ccc(C(F)(F)F)cc1)C1CC(c2c(Cl)cccc2Cl)=NO1 (stereo unspecified) | inconclusive [inhibitor, single point]
CC1=C(C)CC(C(=O)Nc2cccc(Cl)c2)C(C(=O)O)C1 (stereo unspecified) | inactive
O=C(NC(=S)Nc1ccc(Oc2ccccc2)cc1)c1ccc(Cl)cc1 | inconclusive [inhibitor, single point]
CCCc1cc(=O)oc2c(C)c(OCC(=O)Nc3ccc(CN4CCOCC4)cc3)ccc12 | inconclusive [inhibitor, partial curve]
Cc1ccc(S(=O)(=O)Nc2cc(-c3ccccc3)nn2C)cc1Cl | inactive
CCc1ccc(NC(=O)C(C)Sc2ccc(S(=O)(=O)N3CCN(C)CC3)cn2)cc1 (stereo unspecified) | inconclusive [inhibitor, single point]
COc1ccc(C(C)=O)cc1COC(=O)CCNS(=O)(=O)c1ccc(C(C)=O)cc1 | inconclusive [inhibitor, partial curve]
CCCCN(CCCC)C(=O)CCS(=O)(=O)c1ccc2c(c1)n(C)c(=O)c(=O)n2C | inconclusive [inhibitor, single point]
O=C(NCCCNC(=O)c1ccc(-c2cc(Cl)ccc2Cl)o1)c1cnccn1 | inconclusive [inhibitor, partial curve]
C/C(=N\NC(=O)c1ccc(F)cc1)c1ccc(NC(=O)Cc2ccccc2)cc1 | inconclusive [inhibitor, single point]
Cc1nc(-c2ccc(O)c(O)c2)cs1 | inconclusive [inhibitor, partial curve, poor fit]
O=C(Nc1ccccc1Cl)Oc1ccc(-c2ccccc2)cc1 | inactive
COCCN1CCC(CNCc2cn(-c3cc(C)ccc3C)nc2-c2ccccc2)C1 (stereo unspecified) | active: 7.94 µM
O=C(Oc1ccccc1)Oc1ccc2c(c1)oc(=O)c1ccccc12 | inconclusive [inhibitor, single point]
CCN(CC)c1ccc(NC(=O)CCCOc2cccc(C)c2)cc1 | inconclusive [inhibitor, single point]
COc1ccc(/C=C(/C(=O)c2cccs2)N2C=CC=CC2=C(C#N)C#N)cc1 | inconclusive [inhibitor, single point]
C=CC[C@@H](CC(=O)N[C@H](CO)Cc1ccccc1)C(=O)N[C@@H](COC(=O)[C@@H](CC=C)CC(=O)OC(C)(C)C)Cc1c[nH]c2ccccc12 | inconclusive [inhibitor, single point]
COc1cc2c(cc1NC(=O)CSc1ccc(C)cc1)oc1ccccc12 | active: 10 µM
CCOC(=O)N1CCC(NC(=O)CS(=O)(=O)Cc2nc(-c3cccc(OC)c3)oc2C)CC1 | inconclusive [inhibitor, partial curve]
Cc1ccc(NC(=O)c2ccc(NS(=O)(=O)c3ccc4[nH]c(=O)[nH]c4c3)cc2)nc1 | inconclusive [inhibitor, partial curve]

SMILES | Potency
C=CCn1cnc2c(c1=O)c1nc3ccccc3nc1n2/N=C/c1cccc(OC)c1OC | inconclusive [inhibitor, partial curve]
O=C(Nc1ccc(S(=O)(=O)Nc2nccs2)cc1)c1c(F)c(F)c(F)c(F)c1F | inconclusive [inhibitor, partial curve]
CCc1nn(C(C)C(=O)NCCc2ccc(OC)c(OC)c2)c(=O)c2cc3occc3n12 (stereo unspecified) | inconclusive [inhibitor, partial curve]
CCOc1ccc(C(=O)Nc2cc(S(=O)(=O)Nc3ccccc3Cl)ccc2N2CCOCC2)cc1 | inconclusive [inhibitor, full curve]
COc1ccc(/C=N/NC(=O)Nc2nonc2N)cc1 | inactive
COc1ccc2[nH]c(=O)c(CN(CC3CCCO3)C(=O)Nc3ccccc3OC)cc2c1 (stereo unspecified) | inconclusive [inhibitor, single point]
Cc1ccc(SC[C@H](CC(C)C)N2CCN(CCc3ccccc3)CCC2=O)cc1 | inconclusive [inhibitor, single point]
Cc1cccn2c(=O)c3cc(C(=O)NC4CCCCC4C)n(C)c3nc12 (stereo unspecified) | inactive
Clc1ncnc2scc(C3COc4ccccc4O3)c12 (stereo unspecified) | inconclusive [inhibitor, single point]
Cc1ccc(CCNc2ncnc(Cl)c2N)cc1 | active: 1 µM
O=C(NCc1cccs1)C1CCCN(S(=O)(=O)c2ccc(Br)s2)C1 (stereo unspecified) | inconclusive [inhibitor, single point]
Cc1ccc(N(C)S(=O)(=O)c2ccc(-c3cc(C)no3)s2)cc1 | inconclusive [inhibitor, single point]
CC(C)(C)OC(=O)C[C@H]1C/C=C\C[C@H](CC(=O)N[C@H](CO)Cc2ccccc2)C(=O)N[C@@H](Cc2ccccc2)COC1=O | inactive
CCN1CCN(Cc2cc(=O)oc3cc(C)cc(C)c23)CC1 | inconclusive [inhibitor, partial curve]
CC(=O)Nc1ccc2nc(NC(=O)c3cccnc3)sc2c1 | inactive
CCOc1ccc(CN(Cc2ccco2)C(c2cccs2)c2nnnn2C(C)(C)C)cc1 (stereo unspecified) | inconclusive [inhibitor, partial curve]
O=C(NCC1COc2ccccc2O1)c1cccc(S(=O)(=O)N2CCCCC2)c1 (stereo unspecified) | inconclusive [inhibitor, single point]
COCCOC(=O)c1c(C)nc(SCC(=O)Nc2cccc3ccccc23)c(C#N)c1-c1ccco1 | inconclusive [inhibitor, full curve, poor fit]
CCOc1ccc(C(C)=O)cc1COC(=O)C1=COCCO1 | active: 10 µM
COCc1nnc(NC(=O)c2ccc(S(=O)(=O)N3CCCC3)cc2)o1 | inactive
CCOC(=O)c1cc(-c2ccccc2)n(CCC(=O)NC(C)CC)c1C (stereo unspecified) | inconclusive [inhibitor, single point]
Cc1ccc(OCC(=O)Nc2cc(S(=O)(=O)N3CCOCC3)ccc2Cl)c([N+](=O)[O-])n1 | inconclusive [inhibitor, single point]
